# Measured values as given in the supplement of paper PMC8728848.
# This is one part of the list.
# B1: InvD YPIII (Yersinia pseudotuberculosis), B1JSC0 (protein)
# chain: MIKYFSFFKKPEPIVGILPNRQSHHILPTHIRRVAWGTLLLQLFIPLSVSFSPAIAAMKASKADTMVSYSSTEPYVLGSGETVAMVAKKYGITVDELKKINIYRTFSRPFTALTTGDEIDIPRKASPFSVDNNKDNRLSVENTLAGHAVAGATALSNGDVAKSGERMVRSAASNEFNNSAQQWLSQFGTARVQLNINDDFHLDGSAADVLIPLYDNEKSILFTQLGARNKDSRNTVNMGAGVRTFQGNWMYGANTFFDNDLTGKNRRIGVGAEAWTDYLKLSANNYFGITDWHQSRDFIDYNERPANGYDLRAEAYLPSYPQLGGKAMYEKYRGDDVALFGKDNRQKNPHAITAGVNYTPIPLVTIGAEHRAGKGGQNDSNINFQLNYRLGETWQSHIDPSAVAASRTLAGSRYDLVERNNHIVLDYQKQNLVRLSLPDSLAGDPFSQLSVTAQVTATHGLERIDWQSAELMAAGGVLKQTSKNGLEITLPEYQMNRTGGNSYILNAIAYDTQGNASSQASMLITVNAQKINIANSTLVAVPINIEANNSDTSVVTLTLKDDNNIPVTGQDVTFLSPLGTLSAMTDSGNGVYTATLTAGTVSGTTAVSSNINGSALDMTPATVTLNGNSGELSITHSMLVAAPVNIEANGSDTSVVTLTLRDSNNNPVTGQTVTFAGTLGTLGAVTEGSSGVYTATLTAGIMVGTSSITASVNSTALGVTPATVTLNGDSGNLSTTNSTLVAAPVNIEANSSDTSVVTLTLRDNNNNPVTGQTVVFTSTLGTLGNVTEQASGVYTATLTAGTVSGVASLSVSVGGNALGVTPATVTLNGDSGNLSTTNSTLVAAPVNIEANSSDTSVVTLTLRDNNNNPVTGQTVNFAGTLGTLGTVSEGSSGVYTTTLTAGTVAGVASLSVNVGGNALGVTPATVTLNGNSGNLSATNSTLVAAPVNIEANSSDTSVVTLTLRDNNNNPVTGQTVAFTSTLGTLGNVTEQASGVYTATLTAGTVSGVASLSVSVNSNALGVTPATVTLNGDSGNLSTTNSTLVAAPVNIEANSSDTSVVTLTLRDNNNNPVTGQTVAFTSTLGTLGNVTEQASGLYTATLTAGTVSGVASLSVNVGGNALGVTPATVTLNGDSGNLSATNSTLVAAPVNIEANSSDTSVVTLTLRDNNNNPVTGQTVAFTSTLGTLGNVTEQASGLYTATLTAGTVSGVASLSVNVGGTALGVTPATVTLNGDSGNLSTTNSTLVAAPVNIEANSSDTSVVTLTLRDNNNNPVTGQTVAFTSTLGTLGNVTEQASGLYTATLTAGTVSGVASLSVSVNSTALGVTPATVTLNGDSGNLSTTNSTLVAAPVNIEANSSDTSVVTLTLRDNNNNPVTGQTVAFTSTLGTLGNVTEQASGVYTATLTAGTVAGVASLSVNVGGNALGVTPATVTLNGDSGNLSTTNSTLVAAPVNIEANSSDTSVVTLTLRDNNNNPVTGQTVAFTSTLGTLGNVTEQASGVYTATLTAGTVSGVASLSVSVGSSALGVTPATVTLNGDSGNLSTTNSTLVAAPVNIEANNSDTSVVTLTLRDNNNNPVTGQTVAFTSTLGTLGNVTEQASGVYTATLTAGTVSGVASLSVSVNSNALGVTPATVTLNGDSGNLSTTNSTLVAAPVNIEANSSDTSVVTLTLRDNNNNPVTGQTVVFTSTLGTLGNVTEQASGLYTATLTAGTVSGVASLSVSVGGNALGVTGNITLAPGALDAARSILAVNKPSINADDRIGSTITFTAQDAQGNAITGLDIAFMTDLENSQIMTLVDHNDGTYTANINGTQTGIANIAVQSSGATIAGLAATMVTITPGAWNTTQATPVMTVALPITTCQSSSGVYKRYYIGIVTHELYDNYGNEISGILTYNLGAGRYTTVTSQNSSVSGSNGLTRRSNSPVSHFILTSDAYTSQAACYAERIANVNVTITVTAITDDFKTSAVNKVFILGTGSN
# Columns and labels:
# Assay in all cases: glycan array binding signal (z-score within array); higher = stronger binding
# Conditions in all cases: glycan notation: IUPAC condensed, linker removed
# [1] = target: Gal(b1-4)GlcNAc(b1-2)Man(a1-6)[GlcNAc(b1-2)Man(a1-3)]Man(b1-4)GlcNAc(b1-4)GlcNAc
# Outline: (§1)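 Negative Z-scores can be read as non-binding. The Z-score is calculated within each array and then averaged across arrays of one protein sequence at different concentrations or buffers and across linkers. Arrays, 3228 in all, were curated from the Consortium for Functional Glycomics database and kept only where the protein sequence was available.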
# [2] = target: Gal(b1-4)GlcNAc(b1-2)Man(a1-6)[Man(a1-3)]Man(b1-4)GlcNAc(b1-4)GlcNAc
# Outline: as §1
# [3] = target: Gal(b1-4)GlcNAc(b1-2)[Gal(b1-4)GlcNAc(b1-4)]Man(a1-3)[Gal(b1-4)GlcNAc(b1-2)Man(a1-6)]Man(b1-4)GlcNAc(b1-4)GlcNAc
# Outline: as §1
# [4] = target: Gal(b1-4)GlcNAc(b1-2)[Gal(b1-4)GlcNAc(b1-4)]Man(a1-3)[Gal(b1-4)GlcNAc(b1-2)[Gal(b1-4)GlcNAc(b1-6)]Man(a1-6)]Man(b1-4)GlcNAc(b1-4)GlcNAc
# Outline: as §1
# [5] = target: Gal(b1-4)GlcNAc(b1-2)[Gal(b1-4)GlcNAc(b1-4)]Man(a1-3)[GlcNAc(b1-4)][Gal(b1-4)GlcNAc(b1-2)Man(a1-6)]Man(b1-4)GlcNAc(b1-4)GlcNAc
# Outline: as §1
# [6] = target: Gal(b1-4)GlcNAc(b1-2)[Gal(b1-4)GlcNAc(b1-4)]Man(a1-3)[GlcNAc(b1-4)][Gal(b1-4)GlcNAc(b1-2)[Gal(b1-4)GlcNAc(b1-6)]Man(a1-6)]Man(b1-4)GlcNAc(b1-4)GlcNAc
# Outline: as §1
# [7] = target: Gal(b1-4)GlcNAc(b1-2)[Gal(b1-4)GlcNAc(b1-6)]Man(a1-6)[Gal(b1-4)GlcNAc(b1-2)Man(a1-3)]Man(b1-4)GlcNAc(b1-4)GlcNAc
# Outline: as §1
# [8] = target: Gal(b1-4)GlcNAc(b1-2)[Gal(b1-4)GlcNAc(b1-6)]Man(a1-6)[Gal(b1-4)GlcNAc(b1-2)Man(a1-3)]Man(b1-4)GlcNAc(b1-4)[Fuc(a1-6)]GlcNAc
# Outline: as §1
# [9] = target: Gal(b1-4)GlcNAc(b1-2)[Gal(b1-4)GlcNAc(b1-6)]Man(a1-6)[GlcNAc(b1-4)][Gal(b1-4)GlcNAc(b1-2)Man(a1-3)]Man(b1-4)GlcNAc(b1-4)GlcNAc
# Outline: as §1
# [10] = target: Gal(b1-4)GlcNAc(b1-2)[Gal(b1-4)GlcNAc(b1-6)]Man(a1-6)[GlcNAc(b1-4)][Gal(b1-4)GlcNAc(b1-2)[Gal(b1-4)GlcNAc(b1-4)]Man(a1-3)]Man(b1-4)GlcNAc(b1-4)[Fuc(a1-6)]GlcNAc
# Outline: as §1
# [11] = target: Gal(b1-4)GlcNAc(b1-3)Gal(b1-3)GalNAc
# Outline: as §1
# [12] = target: Gal(b1-4)GlcNAc(b1-3)Gal(b1-3)GlcNAc
# Outline: as §1
# [13] = target: Gal(b1-4)GlcNAc(b1-3)Gal(b1-4)Glc
# Outline: as §1
# [14] = target: Gal(b1-4)GlcNAc(b1-3)Gal(b1-4)GlcNAc
# Outline: as §1
# [15] = target: Gal(b1-4)GlcNAc(b1-3)Gal(b1-4)GlcNAc(b1-2)Man(a1-3)[Gal(b1-4)GlcNAc(b1-3)Gal(b1-4)GlcNAc(b1-2)Man(a1-6)]Man(b1-4)GlcNAc(b1-4)GlcNAc
# Outline: as §1
# [16] = target: Gal(b1-4)GlcNAc(b1-3)Gal(b1-4)GlcNAc(b1-2)Man(a1-3)[Gal(b1-4)GlcNAc(b1-3)Gal(b1-4)GlcNAc(b1-2)Man(a1-6)]Man(b1-4)GlcNAc(b1-4)[Fuc(a1-6)]GlcNAc
# Outline: as §1
# [17] = target: Gal(b1-4)GlcNAc(b1-3)Gal(b1-4)GlcNAc(b1-2)[Gal(b1-4)GlcNAc(b1-3)Gal(b1-4)GlcNAc(b1-6)]Man(a1-6)[Gal(b1-4)GlcNAc(b1-3)Gal(b1-4)GlcNAc(b1-2)Man(a1-3)]Man(b1-4)GlcNAc(b1-4)GlcNAc
# Outline: as §1
# [18] = target: Gal(b1-4)GlcNAc(b1-3)Gal(b1-4)GlcNAc(b1-2)[Gal(b1-4)GlcNAc(b1-3)Gal(b1-4)GlcNAc(b1-6)]Man(a1-6)[Gal(b1-4)GlcNAc(b1-3)Gal(b1-4)GlcNAc(b1-2)Man(a1-3)]Man(b1-4)GlcNAc(b1-4)[Fuc(a1-6)]GlcNAc
# Outline: as §1
# [19] = target: Gal(b1-4)GlcNAc(b1-3)Gal(b1-4)GlcNAc(b1-3)Gal(b1-4)GlcNAc
# Outline: as §1
# [20] = target: Gal(b1-4)GlcNAc(b1-3)Gal(b1-4)GlcNAc(b1-3)Gal(b1-4)GlcNAc(b1-2)Man(a1-3)[Gal(b1-4)GlcNAc(b1-3)Gal(b1-4)GlcNAc(b1-3)Gal(b1-4)GlcNAc(b1-2)Man(a1-6)]Man(b1-4)GlcNAc(b1-4)GlcNAc
# Outline: as §1
# [21] = target: Gal(b1-4)GlcNAc(b1-3)Gal(b1-4)GlcNAc(b1-3)Gal(b1-4)GlcNAc(b1-2)Man(a1-3)[Gal(b1-4)GlcNAc(b1-3)Gal(b1-4)GlcNAc(b1-3)Gal(b1-4)GlcNAc(b1-2)Man(a1-6)]Man(b1-4)GlcNAc(b1-4)[Fuc(a1-6)]GlcNAc
# Outline: as §1
# [22] = target: Gal(b1-4)GlcNAc(b1-3)Gal(b1-4)GlcNAc(b1-3)Gal(b1-4)GlcNAc(b1-2)[Gal(b1-4)GlcNAc(b1-3)Gal(b1-4)GlcNAc(b1-3)Gal(b1-4)GlcNAc(b1-6)]Man(a1-6)[Gal(b1-4)GlcNAc(b1-3)Gal(b1-4)GlcNAc(b1-3)Gal(b1-4)GlcNAc(b1-2)Man(a1-3)]Man(b1-4)GlcNAc(b1-4)[Fuc(a1-6)]GlcNAc
# Outline: as §1
binder,measurement,setting,value
B1,glycan array binding signal (z-score),[1],-0.269
same,glycan array binding signal (z-score),[2],-0.393
same,glycan array binding signal (z-score),[3],-0.227
same,glycan array binding signal (z-score),[4],-0.176
same,glycan array binding signal (z-score),[5],-0.258
same,glycan array binding signal (z-score),[6],-0.086
same,glycan array binding signal (z-score),[7],-0.006
same,glycan array binding signal (z-score),[8],-0.014
same,glycan array binding signal (z-score),[9],-0.28
same,glycan array binding signal (z-score),[10],-0.22
same,glycan array binding signal (z-score),[11],-0.131
same,glycan array binding signal (z-score),[12],-0.132
same,glycan array binding signal (z-score),[13],-0.202
same,glycan array binding signal (z-score),[14],-0.251
same,glycan array binding signal (z-score),[15],10.1
same,glycan array binding signal (z-score),[16],2.01
same,glycan array binding signal (z-score),[17],0.653
same,glycan array binding signal (z-score),[18],1.88
same,glycan array binding signal (z-score),[19],-0.253
same,glycan array binding signal (z-score),[20],1.59
same,glycan array binding signal (z-score),[21],0.402
same,glycan array binding signal (z-score),[22],1.62
